# Data from the supplement of paper PMC11417369.
# ± gives the standard deviation of the averaged measurements. This is one part of the list.
# Test system: PfAP2-EXP AP2 domain (GST-tagged)
# Assay: gcPBM binding intensity (ln(normalized median fluorescence intensity)); higher = stronger DNA binding
# Procedure, shortened: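 In this array assay, P. falciparum DNA-binding domains with a GST tag, expressed in E. coli, were applied for 1 h to primer-extended double-stranded 36-bp intergenic genomic probes and negative controls on an Agilent 4 × 180k array. Bound protein was visualised with Alexa488 anti-GST antibody at 488 nm. Binding intensity is the highest Masliner-normalised natural-log median intensity across replicate spots of either probe orientation.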
row,Sequence,gcPBM binding intensity (ln)
1,TTTTCTGTGTTTTTGGGTACACACAAATAGCTTGTA [XGTACX_site8553],8.86 ± 0.27
2,TAATTTCTTATGTATTGTACAAATAATATATTATAT [XGTACX_site1037],8.64 ± 0.33
3,CAATTTTACTCATAAACACACATATATATGTTATTA [CACACA_site3152],8.44 ± 0.39
4,ATATGTGTTAAAAATGCACACAAAAAAATATACATA [CACACA_site7988],8.69 ± 0.49
5,AAAAAAAGGATGTACGTATCATAATTTTATTTTATA [CACACA_negctrl_site1543],8.24 ± 0.33
6,TTTTACAAATGTTTTACACACACATAATTGTATCAA [CACACA_site4166],8.43 ± 0.34
7,CTTATTTTATTCGAATGTACATAATTGTTAGACATT [XGTACX_site8583],8.66 ± 0.39
8,TGATATTATATTGTGATGCACTTTAAAAATATAAAG [GTGCAC_site9509],8.46 ± 0.11
9,ATGGTTTAATTATATACACACTCGAAAATAACGACA [CACACA_site3258],8.52 ± 0.5
10,TATCTCATGCGCACAAAAATATATGCAAAGAGTATA [TGCATGCA_negctrl_site201],8.64 ± 0.17
11,CTTAAGTAAAATTAAAGTACATGGACAAAAAATATA [XGTACX_site7900],8.87 ± 0.28
12,AATAATAACAAATGAACACACATATAGATGAGCAAA [CACACA_site7076],8.8 ± 0.49
13,ATAAATTAATGGAGAAATCTTATGAATTTATTTTAA [CACACA_negctrl_site1068],7.97 ± 0.58
14,AAATAAAATATTACATGTACATGTTCATAAAAAAAA [XGTACX_site1067],8.67 ± 0.38
15,TATTGTAGTCATGCACGTACAAAAGGAAAGTTAAAA [XGTACX_site4446],9.12 ± 0.11
16,TAAATATAAGTGTACATACACACTTTACAATCTCAT [CACACA_site3006],8.43 ± 0.25
17,AATATATACATATATACACACACATATATTATATAT [CACACA_site7980],8.51 ± 0.43
18,TACATACACAGACACACACACATATATATATATATA [CACACA_site3557],10.2 ± 0.2
19,AATAAAAAGGAACACACACACACACCGATATATATA [CACACA_site5895],8.86 ± 0.57
20,AAAGAAGAAAAATATAGTACAGGGCACATGTCCTGT [XGTACX_site6293],8.45 ± 0.35
21,AAAAAAAAAAAAATTGCATGTAAATGAAATAATAAA [TGCATGCA_site116],8.89 ± 0.2
22,ATTTAAATTTAAAAAACACACATAATATGATATATA [CACACA_site1973],8.57 ± 0.47
23,TTATTTTTATATTTCACACACATATACTTTTACATA [CACACA_site4097],8.8 ± 0.47

row,Sequence,gcPBM binding intensity (ln)
1,TGTTTCTAAAAATTTACACACAAAATATTTCTACAT [CACACA_site4098],8.51 ± 0.42
2,CCTATAAAACCATATACACACATATATATAAAAAAA [CACACA_site4013],8.63 ± 0.55
3,TTATACGATAATATGACACACAATACAAAAATGTAA [CACACA_site1918],8.48 ± 0.37
4,TTTCTTTCTATTGTTATATTTATAATAATTATAATT [XGTACX_negctrl_site215],8.57 ± 0.42
5,TATAAAATTACATTTTGTCATTTATTTTTTCCCACT [TGCATGCA_negctrl_site110],8.28 ± 0.45
6,TGTTTAAGTGTTTTTAGTACTTATAAAAATATTATC [XGTACX_site7379],8.25 ± 0.3
7,ATATTATCCCTATTTGCACACAAGAGTAATTTTTTA [CACACA_site3908],8.71 ± 0.38
8,TTTCTAATATATAAAGTGCAATACCATTCAGAGTTA,8.56 ± 0.3
9,ATTGTCTTTTAATAGTGTACTTATTTTAAATATTGC [XGTACX_site8517],8.65 ± 0.32
10,TATAATTTATAAGTAGTGCATTTCTTTTCATTTTTA,8.655 ± 0.007
11,AAGAAAATAAAATAAAATAAAATAAAATAAAAATAT [TGCATGCA_negctrl_site493],8.62 ± 0.34
12,ATATGGAAGAATTAAAGTACTTAAAAAAATGTCAGT [XGTACX_site6837],9.11 ± 0.51
13,TTTTATAGAGTGTATACATGCAATACCACATAAAAT [TGCATGCA_site476],8.98 ± 0.3
14,TGATGATATAAAAACACACACATATAACATAATACT [CACACA_site6687],8.71 ± 0.61
15,TTATTATATATAAGTAGTACAAACAATTAAGAGATA [XGTACX_site4009],8.84 ± 0.3
16,GTAAAAAAAAAAAAATGTACACATATATATAATATA [XGTACX_site159],8.37 ± 0.26
17,TTTTTTTTTTTTAATACACACATATATATATTTATT [CACACA_site3994],8.38 ± 0.42
18,AACATAATTAAAAATTGTACAGAATTTCAATCGAAA [XGTACX_site7542],8.54 ± 0.59
19,ATAAAAATGTATATATGTACATATATATATATATAT [XGTACX_site1505],9.97 ± 0.6
20,ATCACTTGAGAATAATTACATTAATATATATTTATG [TGCATGCA_negctrl_site581],8.17 ± 0.54
21,CTTTTTAATTAATACACACACACACCCATATATATA [CACACA_site2292],8.86 ± 0.27
22,CATATACATACACATACACACATACAGACATACACA [CACACA_site6919],8.69 ± 0.37
23,GGGAAAGAACCATATACATGCATATTTACCGTTAAA [TGCATGCA_site519],8.69 ± 0.38

row,Sequence,gcPBM binding intensity (ln)
1,TGAAATTTTATTAATGTGCACATATATTTATTGTTC,8.71 ± 0.29
2,ACATTCATAAAAAAAAGTACATTTTTTATAAAAGAA [XGTACX_site6197],8.53 ± 0.46
3,TTGTTAAATATTTATAAAATGAATTTAAAATGTACT [CACACA_negctrl_site665],8.34 ± 0.47
4,TATATTTAGAATACAATCTTAAAGTTGAAATAAAAT [CACACA_negctrl_site1292],8.16 ± 0.4
5,AACATAATAAAAAAACGTACATAATTTTATATACAT [XGTACX_site6602],8.51 ± 0.25
6,TTTATTATCTTATTCACACACATATATAAATATGTA [CACACA_site7369],8.58 ± 0.4
7,AAAAAAAAAACATACACACACACAAATATTTATATA [CACACA_site437],8.54 ± 0.71
8,ATATATCCAATATATATATATATATATATATATATA [CACACA_negctrl_site160],9.99 ± 0.74
9,AAATTATGTGCCAATACACACACACCGATATATATA [CACACA_site8050],8.72 ± 0.38
10,ATAATATAGAAACACACACACATATATATATACATT [CACACA_site555],8.71 ± 0.29
11,TTTATATATAAATATATATATATATATATATATATA [TGCATGCA_negctrl_site121],10.2 ± 0.35
12,TAGTTTTTATATAGCACACATATTGTGATTATGTAT [CACACA_site1196],8.61 ± 0.19
13,TACTACCACGGACATGCATGCACATTATTACTCTAA [TGCATGCA_site313],9.96 ± 0.13
14,TTCTTAGATTGTACAGTACACACCTTTAGAATGTTA [CACACA_site212],8.79 ± 0.4
15,AATTCATTTTACCCATGTACACAATTATATTTTATA [XGTACX_site4127],8.78 ± 0.22
16,AAGAAAAAATGATGAATAGAGATCAAATCTATATAT [TGCATGCA_negctrl_site29],8.38 ± 0.49
17,TTTTGTTACTTTTATGTGCACTTATAAAACGAACTA [GTGCAC_site9551],9.11 ± 0.014
18,GACTTTTCAATTTTTCGTACGTATAAATTGTATACA [XGTACX_site1488],8.81 ± 0.34
19,CTAATATATATCAATTGTACATATTGAATAAGAACA [XGTACX_site4541],8.59 ± 0.44
20,TTTTTATTGTTGTACTTATATTATTTTATTATTAAA [GTGCAC_negctrl_site200],8.96 ± 0.24
21,ATTCATTCATATGTTACACACACACCGACACATAAA [CACACA_site5749],8.87 ± 0.52
22,TTTTGAAGTAACAAATAAATAAATAAATATATAAAA [GTGCAC_negctrl_site517],8.54 ± 0.45
23,TATTAAACTGGACACACACACACACCCATATATAAA [CACACA_site4579],8.72 ± 0.59

row,Sequence,gcPBM binding intensity (ln)
1,ACATAATTTGATAATACACACAAATAATCTAAAATT [CACACA_site129],8.38 ± 0.41
2,TATATTAATATGAAAAGTACACATTCTATATATATA [XGTACX_site929],8.99 ± 0.18
3,AAAATAATCACATATTGTACAAAAAAATTTATTAAA [XGTACX_site3239],8.44 ± 0.48
4,TTTAATTATAAAACGTGTACATAATTATAATTACAT [XGTACX_site2206],8.52 ± 0.31
5,AAAAAAAAAAAAAAATGTACCCATATATAAATATAT [XGTACX_site4061],8.28 ± 0.14
6,AAAAAATGGATGATCACACACTTCATAAAAATTGCA [CACACA_site5256],8.46 ± 0.49
7,ATTATGTACAAAATGGTGCAATATTATACATATATA [GTGCAC_site9468],8.75 ± 0.042
8,AAAAATAGTATAAGTAGTACAACTGAAAAGTTATGT [XGTACX_site7488],8.85 ± 0.27
9,ATCATTTGCTCACGCACACACACATAAAAAGAAAAA [CACACA_site4349],8.69 ± 0.42
10,ATAAAACGAAGATGTTGTACGTACAAATAAATGAAT [XGTACX_site2472],9.35 ± 0.41
11,ATAACTTTTTAAAAGACACACATAAGAAAAACAAAA [CACACA_site723],8.94 ± 0.47
12,TATCTTATAAACTCTGCACACATAATATATTAAATG [CACACA_site8587],8.61 ± 0.33
13,TATACGCAGAAACACACACACATACACCCACATACA [CACACA_site1723],8.65 ± 0.54
14,CAAAAGTAAGCACGCACACACAACATGAAATAAACT [CACACA_site6223],8.9 ± 0.53
15,TTAATTAATTTTTCAGTGCAAATAAAAAATATTTAA,8.2 ± 0.33
16,AAAAATTTTAATTAGGAACACACATATATATATATA [CACACA_site9016],10.1 ± 0.27
17,AACGTTCATAATTATTGTACCCTCATTTTATTTTTT [XGTACX_site503],8.85 ± 0.71
18,TATATTAGAAAGGATACACACATATATATATATCTA [CACACA_site570],8.29 ± 0.38
19,ATATATATGTATGTATGTACACACAAAAAATGGAAT [XGTACX_site7879],9.16 ± 0.38
20,ATATGCTATTATATATGTACACACCAATTTATTTAT [XGTACX_site8364],8.96 ± 0.38
